About 2,200 (0.71%) of roughly 310,000 compounds showed an effect of 50% or more. The effect is printed as a negative number. The list shows a part of the results.

Sequence of human ether-à-go-go-related gene (hERG) potassium channel (Q12809 whole entry, looked up): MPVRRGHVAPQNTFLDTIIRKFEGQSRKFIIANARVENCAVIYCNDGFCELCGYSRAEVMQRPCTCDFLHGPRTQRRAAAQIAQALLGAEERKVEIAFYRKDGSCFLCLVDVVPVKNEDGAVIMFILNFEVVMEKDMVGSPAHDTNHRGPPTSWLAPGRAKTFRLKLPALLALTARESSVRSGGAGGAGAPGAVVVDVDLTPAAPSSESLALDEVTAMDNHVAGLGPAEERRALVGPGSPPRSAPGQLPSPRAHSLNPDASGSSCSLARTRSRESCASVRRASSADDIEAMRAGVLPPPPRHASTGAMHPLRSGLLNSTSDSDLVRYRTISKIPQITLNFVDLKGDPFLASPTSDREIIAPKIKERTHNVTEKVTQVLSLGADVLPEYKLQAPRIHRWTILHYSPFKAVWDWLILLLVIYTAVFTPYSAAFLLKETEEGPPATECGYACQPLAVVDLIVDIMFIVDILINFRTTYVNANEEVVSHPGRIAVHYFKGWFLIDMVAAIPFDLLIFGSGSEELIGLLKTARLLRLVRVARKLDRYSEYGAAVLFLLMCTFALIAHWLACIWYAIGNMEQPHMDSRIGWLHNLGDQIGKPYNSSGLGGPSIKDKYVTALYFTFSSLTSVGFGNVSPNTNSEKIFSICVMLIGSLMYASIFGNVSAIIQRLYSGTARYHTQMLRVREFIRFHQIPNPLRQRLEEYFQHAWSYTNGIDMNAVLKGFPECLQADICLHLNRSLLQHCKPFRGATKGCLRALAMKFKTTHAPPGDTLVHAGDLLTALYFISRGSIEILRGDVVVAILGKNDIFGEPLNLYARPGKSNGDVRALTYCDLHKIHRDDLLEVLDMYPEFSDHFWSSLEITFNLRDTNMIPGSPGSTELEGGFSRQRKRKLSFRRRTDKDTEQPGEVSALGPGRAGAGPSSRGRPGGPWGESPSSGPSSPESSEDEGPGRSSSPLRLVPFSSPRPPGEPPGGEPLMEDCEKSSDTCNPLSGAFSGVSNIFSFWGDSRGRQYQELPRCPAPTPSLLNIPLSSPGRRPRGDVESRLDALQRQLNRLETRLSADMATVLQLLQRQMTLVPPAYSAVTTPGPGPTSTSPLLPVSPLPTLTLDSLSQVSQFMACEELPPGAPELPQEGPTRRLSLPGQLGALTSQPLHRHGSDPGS

The assay addresses human ether-à-go-go-related gene (hERG) potassium channel (human, UniProt Q12809). In words: primary screen, population patch clamp on CHO cells stably expressing hERG.
Take `O=[N+]([O-])c1cccc(S(=O)(=O)Nc2ccc(S(=O)(=O)N3CCCC3)cc2)c1`: the “hERG current change (%, negative = inhibition) at 1uM” value is listed as 12.5%.

Take `NC(=O)c1ccc(NC(=O)Cn2c(=O)n(-c3ccccc3)c(=O)c3oc4ccccc4c32)cc1`: the “hERG current change (%, negative = inhibition) at 1uM” value stood at 16.8%.

For `NC(=O)c1nn(-c2ccc(Cl)cc2Cl)c(=O)cc1O`, the “hERG current change (%, negative = inhibition) at 1uM” value was found to be 10.9%.

For `Nc1nc(SCCO)[nH]c(=O)c1NC(=O)c1ccccc1F`, the “hERG current change (%, negative = inhibition) at 1uM” value came out at 15.9%.

For `CCN(CC)S(=O)(=O)c1ccc(C(=O)NCC(c2cccs2)N2CCOCC2)cc1.Cl` (stereo not drawn), the “hERG current change (%, negative = inhibition) at 1uM” value was found to be 0.735%.

On to `CC(C)CC(=O)Nc1ccc(C(=O)CN2CCN(c3ccc(O)cc3)CC2)cc1`, for which the “hERG current change (%, negative = inhibition) at 1uM” value is recorded as 8.56%.

`O=S(=O)(Nc1ccc(Br)cc1)c1cccc2nonc12`: the “hERG current change (%, negative = inhibition) at 1uM” value is recorded as -0.755%.

As for `CC(=O)N1CCCc2cc(S(=O)(=O)N3CCCC(C(=O)N4CCN(c5cc(C)ccc5C)CC4)C3)ccc21` (stereo not drawn), the “hERG current change (%, negative = inhibition) at 1uM” value amounted to 8.99%.

On to `O=C(NCCN1CCOCC1)C(=O)c1c[nH]c2ccccc12`, for which the “hERG current change (%, negative = inhibition) at 1uM” value turned out to be 14.4%.

For `O=C1c2cccc3c([N+](=O)[O-])c(O)cc(c23)C(=O)N1Nc1ccccc1`, the “hERG current change (%, negative = inhibition) at 1uM” value turned out to be 12.6%.

Regarding `Cc1cc(C)nc(Sc2ncnc(N)c2[N+](=O)[O-])n1`, the “hERG current change (%, negative = inhibition) at 1uM” value is reported as 12.6%.

Turning to `Brc1cccc(OCCOCCn2ccnc2)c1.O=C(O)C(=O)O`, the “hERG current change (%, negative = inhibition) at 1uM” value was -1.77%.

For `Cc1ccc(-c2nn3c(C)nnc3c3ccccc23)cc1S(=O)(=O)NC(C)(C)CO`, the “hERG current change (%, negative = inhibition) at 1uM” value stood at 8.73%.

As to `CCOc1ccc(NC(=O)C(C)N2C(=O)c3ccccc3C2=O)cc1` (stereo not drawn), the “hERG current change (%, negative = inhibition) at 1uM” value is listed as 6.49%.

On to `Cc1[nH]c2ccccc2c1CN1CCc2ccccc2C1`, for which the “hERG current change (%, negative = inhibition) at 1uM” value came to 1.76%.

Turning to `C/C(=N\Nc1ccc(Cl)c(C(=O)O)c1)c1cccc([N+](=O)[O-])c1`, the “hERG current change (%, negative = inhibition) at 1uM” value is given as 6.86%.

`CN(C)C(=O)CSc1nnc(NC(=O)CCc2ccccc2)s1`: the “hERG current change (%, negative = inhibition) at 1uM” value is recorded as 5.15%.

`Cc1cc(C)cc(N(C(=O)c2csnn2)C(C(=O)NC2CCCCC2)c2ccccn2)c1` (stereo not drawn): the “hERG current change (%, negative = inhibition) at 1uM” value amounted to 11.5%.

Take `CCC(Sc1nc(N)c(NC(=O)c2ccc(OC)c(OC)c2)c(=O)[nH]1)C(=O)OC` (stereo not drawn): the “hERG current change (%, negative = inhibition) at 1uM” value was -5.41%.

For `OC(C#CCN1CCCCCC1)(c1ccccc1)c1cccnc1` (stereo not drawn), the “hERG current change (%, negative = inhibition) at 1uM” value turned out to be 10.8%.

In the case of `Cc1ccc(S(=O)(=O)Nc2ncccn2)cc1`, the “hERG current change (%, negative = inhibition) at 1uM” value was found to be 18.8%.

For the compound `O=C(O)Cn1c(SCCOc2ccccc2F)nc2ccccc21`, the “hERG current change (%, negative = inhibition) at 1uM” value is 8.37%.

Regarding `COC(=O)c1ccc(S(=O)(=O)N2CCC(C(N)=O)CC2)n1C`, the “hERG current change (%, negative = inhibition) at 1uM” value is 8.39%.

On to `COc1ccc(Cl)cc1NC(=O)CN1C(=O)CSC1=O`, for which the “hERG current change (%, negative = inhibition) at 1uM” value came to 11.4%.

With `COc1cccc(N(C(=O)C2CSC(=O)C2)C(C(=O)NC(C)(C)C)c2ccncc2)c1` (stereo not drawn), the “hERG current change (%, negative = inhibition) at 1uM” value was found to be 32.9%.

On to `O=C(CSCc1ccc(F)cc1)N1CCN(c2ccc(F)cc2)CC1`, for which the “hERG current change (%, negative = inhibition) at 1uM” value is listed as -19.8%.

In the case of `Cc1[nH]c2ccccc2c1C(=O)C(=O)N1CCCc2ccccc21`, the “hERG current change (%, negative = inhibition) at 1uM” value is 1.95%.

Consider `CC(=O)N1CCc2cc(C(=O)CN3CCCCC3)ccc21`, for which the “hERG current change (%, negative = inhibition) at 1uM” value is 15.1%.

Turning to `O=C(NC1CCCC1)C(c1ccsc1)N(C(=O)Cc1cccs1)c1cccc(F)c1` (stereo not drawn), the “hERG current change (%, negative = inhibition) at 1uM” value was 19.3%.

Take `CCCOc1ccc(/C=N/NC(=O)C(C)Sc2ccccn2)cc1OCC` (stereo not drawn): the “hERG current change (%, negative = inhibition) at 1uM” value is 10.9%.

Turning to `COc1ccc(CNC(=O)CN(C)S(=O)(=O)c2ccc3c(c2)c(=O)n(C)c(=O)n3C)cc1`, the “hERG current change (%, negative = inhibition) at 1uM” value is recorded as -0.424%.

For the compound `O=C1NC(=S)N/C1=C/c1ccc2ccccc2c1`, the “hERG current change (%, negative = inhibition) at 1uM” value worked out at 13.2%.

Regarding `CCCc1nc(N)nc2c1C(=O)CC(C)(C)C2`, the “hERG current change (%, negative = inhibition) at 1uM” value is recorded as 4.14%.

As to `COc1cc(C=O)cc(OC)c1OS(=O)(=O)c1ccc(NC(C)=O)cc1`, the “hERG current change (%, negative = inhibition) at 1uM” value is recorded as 7.66%.

As for `Cn1c(=O)n(C)c2cc(C(=O)Nc3ccc4c(c3)OCO4)ccc21`, the “hERG current change (%, negative = inhibition) at 1uM” value was 14.8%.

`CCOC(=O)C1(C)NC(c2ccc(O)cc2)C2C(=O)N(c3ccccc3)C(=O)C21` (stereo not drawn): the “hERG current change (%, negative = inhibition) at 1uM” value was determined as 18.6%.

On to `O=C(O)C(=O)O.OC(COCc1cccs1)CN1CCN(c2cccc(Cl)c2)CC1` (stereo not drawn), for which the “hERG current change (%, negative = inhibition) at 1uM” value is reported as -13.4%.

For `CC(Cc1ccccc1)NC(=O)CN1C(=O)c2ccccc2S1(=O)=O` (stereo not drawn), the “hERG current change (%, negative = inhibition) at 1uM” value stood at 5.88%.

With `COc1ccc(OCC#CCNC(C)(C)C)cc1.O=C(O)C(=O)O`, the “hERG current change (%, negative = inhibition) at 1uM” value is recorded as 13.3%.

With `Cc1ccc(S(=O)(=O)N(C)C)cc1NC(=O)COC(=O)/C=C/c1cccs1`, the “hERG current change (%, negative = inhibition) at 1uM” value is listed as 9.04%.

Take `Cc1cnc(NC(=O)CN2CCN(c3ccccn3)CC2)s1`: the “hERG current change (%, negative = inhibition) at 1uM” value stood at 3.32%.

For `Cc1c(Cl)cccc1NC(=S)N1CCN(Cc2ccc3c(c2)OCO3)CC1`, the “hERG current change (%, negative = inhibition) at 1uM” value is 16.6%.

For the origin of these results see paper PMC4336329 (PLoS ONE, 2015).
